Data reported in PMC7645679.
These are yes or no findings as the source states them, for the method shown. Some results given as binding are weak or reduced against the parent protein; the word gives no strength. Tags and fused reporters may be left off the sequences shown.

Target: T1, human CTCF, GFP fusion (F3H) (human) (UniProt P49711)
T1 sequence: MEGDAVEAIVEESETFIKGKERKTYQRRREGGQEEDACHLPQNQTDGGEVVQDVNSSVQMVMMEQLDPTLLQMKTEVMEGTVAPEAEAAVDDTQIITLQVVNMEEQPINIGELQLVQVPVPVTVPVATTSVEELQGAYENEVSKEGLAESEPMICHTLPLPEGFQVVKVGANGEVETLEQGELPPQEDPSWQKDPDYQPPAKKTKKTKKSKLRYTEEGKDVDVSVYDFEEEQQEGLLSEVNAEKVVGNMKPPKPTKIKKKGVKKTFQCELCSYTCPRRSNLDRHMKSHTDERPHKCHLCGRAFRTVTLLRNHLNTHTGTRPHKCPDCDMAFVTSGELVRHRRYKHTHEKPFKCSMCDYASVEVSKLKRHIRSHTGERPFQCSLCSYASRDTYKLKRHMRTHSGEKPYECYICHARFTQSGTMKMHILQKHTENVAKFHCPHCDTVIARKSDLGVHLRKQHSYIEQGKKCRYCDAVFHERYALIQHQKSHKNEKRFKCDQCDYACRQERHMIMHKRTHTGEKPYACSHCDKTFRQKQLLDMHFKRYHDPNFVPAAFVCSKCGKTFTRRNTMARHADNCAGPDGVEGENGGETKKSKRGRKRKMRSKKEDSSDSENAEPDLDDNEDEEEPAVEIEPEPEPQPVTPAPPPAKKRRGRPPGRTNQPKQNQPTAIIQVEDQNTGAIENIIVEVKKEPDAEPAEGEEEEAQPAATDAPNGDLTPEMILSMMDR
Experiment: fluorescent three-hybrid (F3H); GFP-tagged bait tethered to a LacO array by GFP nanobody–LacR in BHK-LacO cells; recruitment of mKate2-tagged prey read as Pearson correlation of green and red channels at the array; cells fixed 24 h after transfection

binding: binds
B1: human PDS5A, mKate2 fusion (protein, UniProt Q29RF7 1-1337)
chain: MDFTAQPKPATALCGVVSADGKIAYPPGVKEITDKITTDEMIKRLKMVVKTFMDMDQDSEDEKQQYLPLALHLASEFFLRNPNKDVRLLVACCLADIFRIYAPEAPYTSHDKLKDIFLFITRQLKGLEDTKSPQFNRYFYLLENLAWVKSYNICFELEDCNEIFIQLFRTLFSVINNSHNKKVQMHMLDLMSSIIMEGDGVTQELLDSILINLIPAHKNLNKQSFDLAKVLLKRTVQTIEACIANFFNQVLVLGRSSVSDLSEHVFDLIQELFAIDPHLLLSVMPQLEFKLKSNDGEERLAVVRLLAKLFGSKDSDLATQNRPLWQCFLGRFNDIHVPVRLESVKFASHCLMNHPDLAKDLTEYLKVRSHDPEEAIRHDVIVTIITAAKRDLALVNDQLLGFVRERTLDKRWRVRKEAMMGLAQLYKKYCLHGEAGKEAAEKVSWIKDKLLHIYYQNSIDDKLLVEKIFAQYLVPHNLETEERMKCLYYLYASLDPNAVKALNEMWKCQNMLRSHVRELLDLHKQPTSEANCSAMFGKLMTIAKNLPDPGKAQDFVKKFNQVLGDDEKLRSQLELLISPTCSCKQADICVREIARKLANPKQPTNPFLEMVKFLLERIAPVHIDSEAISALVKLMNKSIEGTADDEEEGVSPDTAIRSGLELLKVLSFTHPTSFHSAETYESLLQCLRMEDDKVAEAAIQIFRNTGHKIETDLPQIRSTLIPILHQKAKRGTPHQAKQAVHCIHAIFTNKEVQLAQIFEPLSRSLNADVPEQLITPLVSLGHISMLAPDQFASPMKSVVANFIVKDLLMNDRSTGEKNGKLWSPDEEVSPEVLAKVQAIKLLVRWLLGMKNNQSKSANSTLRLLSAMLVSEGDLTEQKRISKSDMSRLRLAAGSAIMKLAQEPCYHEIITPEQFQLCALVINDECYQVRQIFAQKLHKALVKLLLPLEYMAIFALCAKDPVKERRAHARQCLLKNISIRREYIKQNPMATEKLLSLLPEYVVPYMIHLLAHDPDFTRSQDVDQLRDIKECLWFMLEVLMTKNENNSHAFMKKMAENIKLTRDAQSPDESKTNEKLYTVCDVALCVINSKSALCNADSPKDPVLPMKFFTQPEKDFCNDKSYISEETRVLLLTGKPKPAGVLGAVNKPLSATGRKPYVRSTGTETGSNINVNSELNPSTGNRSREQSSEAAETGVSENEENPVRIISVTPVKNIDPVKNKEINSDQATQGNISSDRGKKRTVTAAGAENIQQKTDEKVDESGPPAPSKPRRGRRPKSESQGNATKNDDLNKPINKGRKRAAVGQESPGGLEAGNAKAPKLQDLAKKAAPAERQIDLQR
